Measurements published in the supplement of paper PMC11417369.
± gives the standard deviation of the averaged measurements. The list shows a part of the results.

System: PfAP2-LT AP2 domain (GST-tagged)
Experiment: gcPBM binding intensity (ln(normalized median fluorescence intensity)); higher = stronger DNA binding
Summary of the method: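 An Agilent 4 × 180k array of primer-extended double-stranded 36-bp intergenic genomic probes, with negative controls, was incubated for 1 h with GST-tagged P. falciparum DNA-binding domains expressed in E. coli. Alexa488 anti-GST antibody detected bound protein, scanned at 488 nm. Binding intensity is the highest Masliner-normalised natural-log median intensity across replicate spots of either probe orientation.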

Point of comparison: AACATTTATATTTAAGTGCAGATGCTGTAATTTAGA, “gcPBM binding intensity (ln)” value 8.55 ± 0.52. Against it:
- TGCTCATGAGGTCAGAGTACAAAATAGTAAATGTAT [XGTACX_site2973] — within error, 8.97 ± 0.52
- TTTTGAATTAAACAAGCATGCTTTATTTACTTCTTA [TGCATGCA_site289] — within error, 8.68 ± 0.52
- TAATTCATCCTATGCACACACAATACCAAAATGTGC [CACACA_site4269] — within error, 9.37 ± 0.31
- TAATTTATTAATAATTGTACAGATATTATACTTAAA [XGTACX_site8947] — within error, 8.29 ± 0.5
- TTTATTTTTATTTTTGTGCACGGGATTAAATAAAAG [GTGCAC_site9842] — within error, 8.39 ± 0.42
- TTTTTTTTTTTTTTTCTTTTTTATTCTCACAAAAAA [CACACA_negctrl_site1790] — within error, 8.07 ± 0.44
- ATGCGTTCATACATACATACATACATACAATTTGTA [TGCATGCA_negctrl_site50] — within error, 9.04 ± 0.35
- GAACAAATTACAAGTTGTACTTTATGTAAATTATTA [XGTACX_site5304] — within error, 8.66 ± 0.45
- TTTTTATAACAAAGTATTTAAATAATTTATACTAAT [TGCATGCA_negctrl_site104] — within error, 8.18 ± 0.46
- GATTATCTTCAAGTATGTACACACTATATATAATAA [XGTACX_site5108] — within error, 8.84 ± 0.43
- AATAAATAGAGGAAATGTACATATAAAAATAATTTC [XGTACX_site2454] — within error, 9 ± 0.49
- TTAACATCTTCGTTGACACACAAAAAAAAAAATAAT [CACACA_site1819] — within error, 8.71 ± 0.42
- TACACAAACAGACACACACACACACGCGCACAAAAA [CACACA_site7192] — higher, 10.06 ± 0.042
- ATTATAAATATATTTTGTACTTAAAAGGAAAAAAAA [XGTACX_site55] — within error, 8.21 ± 0.46
- ATTACATGTATACATGTCAACACGTATAAAAAAAAA [CACACA_negctrl_site1154] — within error, 8.89 ± 0.45
- AATAAGCATAGACACACACACAAAAAAAAAAAAAAA [CACACA_site6476] — within error, 9.51 ± 0.64
- ATATAACAGAAACACACACACATATATATATATTAT [CACACA_site4140] — higher, 9.81 ± 0.26
- ATAAATGATAGTAAAAGTACACAAAATGTTTTAAAA [XGTACX_site1623] — within error, 8.66 ± 0.57
- TATTTTTATATATAATCACACATTGGAATGTTCTAA [CACACA_site5540] — within error, 8.67 ± 0.44
- TTCTTTATGGAAGTGTAAAAAAAGAAATACTTTTTT [CACACA_negctrl_site915] — within error, 8.19 ± 0.51
- GCACGAAACAATGTATATATATATATATATATATAT [GTGCAC_negctrl_site412] — higher, 10.32 ± 0.078
- TAAGTAAACTTTCTATGTACATATTTTCAAATATTA [XGTACX_site6260] — within error, 8.59 ± 0.43
- CTTATATATACATATACACACACACCCATATATATA [CACACA_site8705] — higher, 9.59 ± 0.13
- GGTATAATTCATATAACACACATTTCAATGTTAAAA [CACACA_site2172] — within error, 8.86 ± 0.43
- TGTATTAATTTGTAATGTACACATATATGTATTATA [XGTACX_site4152] — within error, 8.82 ± 0.33
- CCAAAATTTATAAATTGTACATATTTTTAAATTCTT [XGTACX_site833] — within error, 8.37 ± 0.4
- GATAAATAATAATAAGGTACACATAAAATATTCCTT [XGTACX_site2963] — within error, 8.8 ± 0.47
- TTAACAAAATTTTTAACACACAAAAAAAAAAAAAAA [CACACA_site1828] — the same, 8.55 ± 0.42
- ATGTAGACAACATATGAACACACAAAATATTTTTTT [CACACA_site8955] — within error, 9.06 ± 0.4
- TCTTTTGTTTAACCTACATGCAGAATATAAGTCTTC [TGCATGCA_site99] — within error, 8.64 ± 0.41
- ATTCATTATTCACCTTGTACACAAATGATTATCGTA [XGTACX_site455] — within error, 8.93 ± 0.45
- ATAAAGAAATAAAGTTGTACATTATATATATATATA [XGTACX_site7729] — within error, 8.98 ± 0.4
- TGTTTAAAAATAATTTGTACATATATTTTATTTCAT [XGTACX_site1272] — within error, 8.59 ± 0.54
- AATAATTTTTTAAACACACACACATATATATATATA [CACACA_site95] — higher, 9.78 ± 0.3
- TATAAAAATAGGATTTGTACATATAAAAAAGGAAAA [XGTACX_site8678] — within error, 8.57 ± 0.54
- CAGAAATAGAGATACACACACACATATATTTATGTA [CACACA_site3968] — higher, 9.72 ± 0.46
- TATAAATATATGTATGCACACATTTTTTTTGGAAAA [CACACA_site1070] — within error, 8.68 ± 0.35
- TAATATAAAAAAGGTACTACACGAAGGAATAAAAAT [XGTACX_site6872] — within error, 9.06 ± 0.45
- TTTGTTCTTTTAATGTGTACATATACACTTGTAATA [XGTACX_site2635] — within error, 8.82 ± 0.4
- ATGTATGCAAAAATGGTGCATATTAAATGTATAACA [GTGCAC_site9722] — within error, 9.01 ± 0.48
- AAAAAAAAAAGAAACACACACATTTGTCTATAATAT [CACACA_site7063] — within error, 9.34 ± 0.53
- TGACCTTATGTGTTTTGAAGGGGAAAGGAAATGCGC [XGTACX_negctrl_site411] — within error, 8.65 ± 0.26
- AAAATTCTTATAAGATGTACAATTTGTAACACTATA [XGTACX_site510] — within error, 8.66 ± 0.38
- TTTTGTATATATTATTGTACTTTTAATATAGATCGT [XGTACX_site5830] — within error, 8.7 ± 0.42
- AAATAAATATATAATACACACAAAAATATAAAATGT [CACACA_site3711] — within error, 9.28 ± 0.37
- TCACATACATTACTTACACACCATATTAAGATATAC [CACACA_site4415] — within error, 9.02 ± 0.34
- TTTTTTACAACACGAAAATGAACAATTATAATAAAT [TGCATGCA_negctrl_site301] — within error, 8.5 ± 0.38
- TTATACTCACGTTACACACACACAATATATATATAT [CACACA_site4137] — higher, 9.6 ± 0.2
- TAATCATAAAAAAATACACACATATAAAATATAGAT [CACACA_site7020] — within error, 9.09 ± 0.41
- AAAAGTTAAGCAACAAATTTTATTTCTTATATATAA [TGCATGCA_negctrl_site134] — within error, 8.31 ± 0.47
- ATATTTATAAATTGCACACAAATAATAACATTATAT [CACACA_site5322] — within error, 8.94 ± 0.43
- TTATACACTGATAAAAGTACATTTGTATGTTTTTTT [XGTACX_site8959] — within error, 8.65 ± 0.47
- ATCTAAAAATTTTACGCACACAAGTAAAAAAAAAAA [CACACA_site2485] — within error, 8.94 ± 0.57
- TTTTATAATCATAATAGTACTTTTTCTTTTTCACAT [XGTACX_site5017] — within error, 8.69 ± 0.51
- AGTAAAAAAAATATCTGTACATATTAATATAAATGT [XGTACX_site6234] — within error, 8.79 ± 0.49
- AAATATTATTCTTTTATTTTTAAACATATAATTATA [GTGCAC_negctrl_site136] — within error, 8.38 ± 0.47
- AAAAAAAAAAAAAAAACACACATATATATTATTGTA [CACACA_site3979] — within error, 8.83 ± 0.3
- TTTTTTGTATTTTTCACACACTCTCTATCTCTCTCA [CACACA_site2095] — within error, 9.14 ± 0.55
- GAATATTACATGTATTGTACAGGTAATGTTAAAAAT [XGTACX_site8274] — within error, 8.87 ± 0.38
- TATTTATTTAATTACACACGAACATATAACCATTTC [CACACA_site211] — within error, 9.01 ± 0.43
- TATATATATATAATTACACACAATGTTCTATATATA [CACACA_site3235] — within error, 9.01 ± 0.38
- TTTTCTTTTAAACATATATATATATATATATATATA [XGTACX_negctrl_site559] — higher, 9.45 ± 0.36
- TGTAGACTACATAGTAGTACATAATATATACATATA [XGTACX_site367] — within error, 8.93 ± 0.59
- GTTGAAAAAAAAAATGCACACGCATACATATAATAT [CACACA_site8117] — within error, 9.13 ± 0.35
- ATTTCTTTGCTTTTCAAACACACAAAAGTTATTATA [CACACA_site520] — within error, 8.77 ± 0.47
- TCATTCCATACTTTAACACACAAATATATTTAATCC [CACACA_site145] — within error, 8.76 ± 0.49
- TTTTTTTTTTTGTTTTGTACATAAATTGCAACCAAT [XGTACX_site8949] — within error, 8.66 ± 0.49
- ATATATATATATATATGTACATATTCACTTATATTT [XGTACX_site5324] — higher, 9.63 ± 0.21
- TAACATAAATCCATACGTACCTATATATATATAATA [XGTACX_site2626] — within error, 8.78 ± 0.4
- ATTTATATTAAAAGTGTGCACTTTTTTTTTTTTTTT — within error, 8.68 ± 0.46
- ATTTATATGTAGATGTGTACTTAATTGTAATGTGTT [XGTACX_site6422] — within error, 8.95 ± 0.45
- TATCAAAATAAATGCACACAAATTGCACATATCTAT [CACACA_site1097] — within error, 9.16 ± 0.37
- CAAAAACATACCTACACACACAATATGTATAAATAA [CACACA_site7617] — higher, 9.55 ± 0.38
- TTGTTTTGCTAAAAATGTACTCTATATAAAAGCTTT [XGTACX_site4027] — within error, 8.41 ± 0.44
- TATATATATTATATATGTACACATATGTGAGAATGA [XGTACX_site2992] — within error, 8.88 ± 0.46
- CAAAAAATACGATGTTGTACTATGTATTCCTGATGT [XGTACX_site246] — within error, 8.86 ± 0.4
- TACTTCGATAATAATCGTACATATATATTGTATTTA [XGTACX_site5700] — within error, 8.84 ± 0.35
- TATATATACATAAAAACATGCAATATATACACATTA [TGCATGCA_site444] — within error, 8.82 ± 0.39
- AACTTTTTTATATGCACACATAAACAAGGATATATA [CACACA_site2874] — within error, 8.88 ± 0.31
- AAAAAAAAAAAAAACACACACACACCCATACACATA [CACACA_site2860] — higher, 10.19 ± 0.078
- TTCGACGAGAGCAAGTGTACTCTTGAATAATTTATA [XGTACX_site7613] — within error, 8.59 ± 0.47
- ATTTTATTTTTTGAGTGTACTAGTTCAACAACTCCG [XGTACX_site8600] — within error, 8.79 ± 0.54
- TGTTATATATTATATACATGCACAAAAGCAACACAA [TGCATGCA_site1009] — within error, 8.76 ± 0.35
- TCCTATATCACAAATGTGCACAGAAAAAAAAAATAT — within error, 8.8 ± 0.45
- ATATATATATACATACGTACACACAAATATTAAAAT [XGTACX_site4007] — within error, 9.13 ± 0.39
- TGTATACATAATATTTGTACATATTGTTATATATAT [XGTACX_site740] — within error, 9.01 ± 0.39
- AATATATATAATAATTGTACAATACGTATGTTATAT [XGTACX_site8745] — within error, 9.06 ± 0.38
- TTATAAAAAAAAAAAAAAAAGAAAATGAATTCACGA [CACACA_negctrl_site1248] — within error, 8.29 ± 0.45
